# Test results as given in the supplement of paper PMC11417369.
# Some of the results follow.
# Tested on: PfAP2-HC AP2 domain (GST-tagged)
# Assay: gcPBM binding intensity (ln(normalized median fluorescence intensity)); higher = stronger DNA binding
# How it was run: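 Probes on an Agilent 4 × 180k array were primer-extended, double-stranded and 36 bp long, taken from intergenic genomic regions, with negative controls added. GST-tagged P. falciparum DNA-binding domains from E. coli, about 25 μg on average, were applied to the array for 1 h in 1× PBS containing 1% milk, 0.2 mg/ml BSA, 0.5% salmon testes DNA and 0.03% Triton X-100. Binding intensity, obtained after Alexa488 anti-GST antibody detection and a 488 nm scan, is the highest Masliner-normalised natural-log median intensity across replicate spots of either probe orientation.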
row,Sequence,gcPBM binding intensity (ln)
1,CGCGCACCCAGACACACACACACACCCATATATATA [CACACA_site2203],10.6
2,ACGTATAATATGTACACACACATATATACCAAAAAA [CACACA_site4661],10.4
3,GATAAAATAATATATAGTACTTTTTTAAAATAAATA [XGTACX_site522],9.5
4,GAAAAAAAAAAAAAAAGTACATTCTCTATTTCATGT [XGTACX_site3209],9.55
5,ATAAATTTAAATAGGAGTACACAGCTTTATATTTTG [XGTACX_site4176],9.71
6,TATAAAACACACACACATATATATATATATTTATAT [TGCATGCA_negctrl_site48],11.2
7,AATTTTAAATTTAATTTACACACTTTTCATAGCATT [CACACA_site9264],9.77
8,ATTTACAAAAATTTTGTATAAAGGGATTTTAAAATG [TGCATGCA_negctrl_site350],9.29
9,TTATTTTATTTTTATACACACATGTTTTAATGTTCA [CACACA_site249],10
10,TATATATACACACACACATGCATGCCGATATATATA [TGCATGCA_site29],10.8
11,AAAAGATATTTGAATATACACACGATTTAAATTTAA [CACACA_site3865],9.7
12,AAAGATTTAATCTATACATGCAAATATATAGAAAAG [TGCATGCA_site373],9.63
13,AATAAAAATAGGAAATGTACACATATATATATATAT [XGTACX_site1853],10.1
14,AGATGCCAAGTATAAAGTACATATCAAAATGTATAT [XGTACX_site456],9.75
15,GAACAAAATTTTATATGTACATAATATTTATATATA [XGTACX_site3667],9.55
16,AGGAGGATAGTTCACAGTACCCAGTAACTCTACGAG [XGTACX_site2008],9.48
17,AAAATTAATGTTGGTTGTACAAAAATTAAATATGGT [XGTACX_site66],9.96
18,GTACAAAGGACTATACATAGAAAAATATATATATAT [XGTACX_negctrl_site164],9.63
19,AAAACTTTTAAAATTTTGTATTCATTCCTTCAACAA [GTGCAC_negctrl_site697],9.49

row,Sequence,gcPBM binding intensity (ln)
1,TTTATAATTCCATAATGTACAAATAAAATAAAAAAT [XGTACX_site663],9.6
2,TATATTCAAAATGGTACACACAATATTTAATTGTGC [CACACA_site2631],9.72
3,TGACATATAAAATATTCACACACAAGTTATAGTTCT [CACACA_site9209],9.94
4,ACATTTTCTTATAAATGTACATATATATTATTATAT [XGTACX_site4404],9.76
5,AAAGTATATAGGATACGTACATACATAAATAAATAA [XGTACX_site8216],9.77
6,GTACAAAATTGACAAGTGCAAAAATTAAAAGCAAGA [GTGCAC_site9838],10
7,ATATATATATAAATATGTACATATATTTATTTCTTT [XGTACX_site3784],9.69
8,TATAAAAATAAGCACACACACAAATATAGATTTATT [CACACA_site6558],11.3
9,GTGTGAGCACATTCGGGAGAGTTTTTTTTTTTTTTT [CACACA_negctrl_site1776],9.53
10,ATATATTCTATATATACATGCATATATATTATATGT [TGCATGCA_site185],9.68
11,TGAATAAATATGCAGCGTACATAATCCTCTTAAAAT [XGTACX_site8462],9.55
12,GTTAAATGAAAATATGTACACACTTGAAAATTTTTA [CACACA_site2924],9.55
13,ATGCAACTATATATATATATTATATGTATGAATAAT [XGTACX_negctrl_site434],9.61
14,TTAATAGAAATACGTGCACACTAAAGGGAAAACAAT [CACACA_site4923],10.1
15,ACAAGTATTAATTACACACTCAAAAAGAAAAAACAA [CACACA_site2281],9.79
16,AAAAAAAAAAAAAGCACACATATAAATATGAATAAA [CACACA_site1393],9.74
17,AAAAAAAAAAAAAACACACACATACACCCAAAAATG [CACACA_site4223],10.3
18,ATATACACACAAAAACGTACACATATATATATGTAT [XGTACX_site2673],10.4
19,GGTATAATAATATATAGTACACACAAAAATGGAAGT [XGTACX_site7058],10

row,Sequence,gcPBM binding intensity (ln)
1,ACAATAAAGAAGTGTACACATATATCAATAAAAAAA [CACACA_site5228],9.88
2,AAAATAATATTTAATACACACATAATTTTAATATAA [CACACA_site4588],9.75
3,TACTTATATTATTTTATTATTAAATTTAAAACGAAA [CACACA_negctrl_site736],9.14
4,AAAAAAAAAAAAAAAAAAAAAAAAATATATAATTTA [CACACA_negctrl_site583],9.25
5,CAATCATGGGTTTACACACACATGCATGTGAAAATT [CACACA_site1349],9.94
6,CATATTAAAAATTATTGTACATATTAATGAATATAA [XGTACX_site2734],9.52
7,GATGATAATAAATTTATATATAATATTATCTTATGT [GTGCAC_negctrl_site672],9.62
8,ATTTTTGCAGTAATTAAATAGACAAAATGAAAAAAA [CACACA_negctrl_site1537],9.63
9,AACCAAACAAATAAACGTACAAACATTACATATATT [XGTACX_site2265],9.75
10,TAATAATAAAAATAAACACACATATATCTGTATTTA [CACACA_site5572],9.74
11,ATATATATATATATAGTGCATAAAATAAGTTTCTAA,9.72
12,TATTTATAAACATACGCACACATTAAAATATATATA [CACACA_site6051],9.88
13,GGTGGAAACAATTACACACACACAAAAAAAAAAAAA [CACACA_site3208],10.2
14,AATCACAACAGACACACACACAAAAAAAAAAAAAAA [CACACA_site1442],10.1
15,ATATGTTATATAAATATATATATATATATATATATA [TGCATGCA_negctrl_site594],9.42
16,TTAATATAATAGAAGTGTACACACATATTTATGTGT [XGTACX_site6672],10.1
17,TAAAGAAAAAGAGAATGTACATGAGAAAAGTATACT [XGTACX_site7472],9.79
18,AGAAAAAAAAAAAAATGTACAGACTTTTTCTTATAA [XGTACX_site6481],9.37
